From the supplement of paper PMC12217912
Some of the results follow. Sequences were assembled here from the parent chain. Inactive controls read about 0.05.

B1: TEV protease; numbered along this chain (parent)
chain: MGESLFKGPRDYNPISSSICHLTNESDGHTTSLYGIGFGPFIITNKHLFRRNNGTLVVQSLHGVFKVKDTTTLQQHLVDGRDMIIIRMPKDFPPFPQKLKFREPQREERICLVTTNFQTKSMSSMVSDTSCTFPSGDGIFWKHWIQTKDGQCGSPLVSTRDGFIVGIHSASNFTNTNNYFTSVPKNFMELLTNQEAQQWVSGWRLNADSVLWGGHKVFMVKPEEPFQPVKEATQL

Variants of: B1
Test: raw area under fraction-flipped curve 0-4 h after induction (AUC4h, not background-subtracted), DNA-recorder readout of cleavage of the substrate (dimensionless); higher = more cleavage of the substrate by the protease variant
Conditions: temperature: 34 °C; time window: 0-4 h after rhamnose induction
Method: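 In vivo DNA recorder in E. coli TOP10(DE3) ΔrhaA at 34 °C. Each TEVp single-site mutant (parent TEVp 0) is paired with a single-site variant of the 7-mer TEVs (canonical ENLYFQ|S). The substrate sits between flexible linkers in a Bxb1-sfGFP-TEVs-SsrA fusion, so cleavage stabilises Bxb1 and speeds flipping of a recombination array, read by NGS. The value is the raw area under the fraction-flipped curve over 0-4 h after rhamnose induction (AUC4h), with ≥20 reads per time point. It is not background-subtracted; inactive controls average about 0.047.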
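Also: Bxb1 expression induced with 0.2% (w/v) L-rhamnose at OD600 near 0.5, cultures sampled hourly, flipped fraction per protease–substrate barcode pair counted by paired-end Illumina sequencing.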

Variant | area with substrate EALYFQS | area with substrate ECLYFQS | area with substrate EDLYFQS | area with substrate EGLYFQS | area with substrate EILYFQS | area with substrate EKLYFQS | area with substrate EMLYFQS | area with substrate EPLYFQS | area with substrate EQLYFQS | area with substrate ERLYFQS | area with substrate ESLYFQS | area with substrate ETLYFQS | area with substrate EVLYFQS | area with substrate EELYFQS | area with substrate EYLYFQS | area with substrate EFLYFQS | area with substrate ELLYFQS | area with substrate EWLYFQS | area with substrate EHLYFQS
E231W | 0.122 | 0.0806 | 0.134 | 0.0994 | 0.0812 | 0.0879 | 0.0704 | 0.106 | 0.091 | 0.091 | 0.0994 | 0.0854 | 0.0804 |  |  |  |  |  | 
K46N |  | 0.0769 |  | 0.0697 | 0.0602 | 0.0855 | 0.0747 | 0.0944 | 0.0744 | 0.0626 | 0.0607 |  |  | 0.0616 | 0.056 |  |  |  | 
L22G |  | 0.0391 |  |  |  | 0.0576 |  |  | 0.0452 | 0.0238 | 0.0653 |  |  |  |  |  |  |  | 
E3N |  | 0.125 |  |  |  |  |  | 0.16 |  | 0.134 |  |  |  |  |  |  |  |  | 
E25I |  | 0.111 |  | 0.0753 | 0.0812 | 0.133 | 0.095 | 0.081 | 0.129 | 0.104 | 0.115 | 0.218 | 0.0965 | 0.0799 | 0.0934 | 0.135 | 0.111 | 0.098 | 
G8W |  | 0.0945 |  |  |  | 0.106 | 0.119 | 0.102 | 0.0985 |  |  |  | 0.0702 | 0.0858 | 0.118 |  | 0.0581 | 0.104 | 
G8I |  | 0.0928 |  | 0.0833 |  | 0.1 |  |  | 0.107 | 0.101 |  |  | 0.0701 |  |  |  |  |  | 0.0682
G35R |  | 0.048 |  |  |  |  |  |  |  | 0.039 |  |  |  |  |  |  |  |  | 
L48D |  | 0.0583 |  | 0.0488 | 0.0552 | 0.0552 | 0.0613 | 0.0557 | 0.0612 | 0.0758 | 0.0567 | 0.0605 | 0.0443 |  | 0.0576 |  | 0.0596 | 0.0653 | 0.0651
L48Y |  | 0.0654 | 0.0505 | 0.0718 |  |  | 0.0668 | 0.0633 | 0.0485 |  |  |  | 0.0559 | 0.0608 |  |  |  | 0.0682 | 0.056
S32C |  | 0.106 | 0.148 | 0.092 | 0.114 | 0.118 | 0.0744 |  | 0.164 | 0.115 | 0.102 |  | 0.0889 | 0.15 | 0.106 | 0.0639 | 0.0843 | 0.0666 | 0.104
F95Y |  | 0.0978 | 0.135 | 0.087 | 0.0894 | 0.112 | 0.12 | 0.147 | 0.089 | 0.103 | 0.0862 | 0.0942 |  |  |  | 0.0979 | 0.0871 |  | 
L77K |  | 0.0471 | 0.0496 |  | 0.0684 |  |  |  |  |  | 0.0757 |  |  |  |  | 0.0572 |  | 0.0561 | 0.0457
M88T |  | 0.0807 |  |  |  | 0.0693 | 0.103 | 0.0939 |  | 0.114 | 0.0952 | 0.137 |  |  |  |  |  | 0.0672 | 
P96H |  | 0.13 | 0.147 |  | 0.109 | 0.0982 |  |  | 0.129 | 0.087 | 0.106 |  | 0.105 | 0.0889 | 0.0566 | 0.118 | 0.0673 | 0.101 | 0.0802
A232Q | 0.234 | 0.119 | 0.125 |  | 0.133 | 0.123 | 0.136 | 0.0959 | 0.117 | 0.0991 | 0.11 |  | 0.112 | 0.118 | 0.106 |  | 0.0892 | 0.0989 | 0.133

Variant | area with substrate EALYFQS | area with substrate ECLYFQS | area with substrate EDLYFQS | area with substrate EGLYFQS | area with substrate EILYFQS | area with substrate EKLYFQS | area with substrate EMLYFQS | area with substrate EPLYFQS | area with substrate EQLYFQS | area with substrate ERLYFQS | area with substrate ESLYFQS | area with substrate ETLYFQS | area with substrate EVLYFQS | area with substrate EELYFQS | area with substrate EYLYFQS | area with substrate EFLYFQS | area with substrate ELLYFQS | area with substrate EWLYFQS | area with substrate EHLYFQS
A232L | 0.101 | 0.0924 | 0.0777 |  | 0.0812 | 0.0787 | 0.11 |  |  | 0.084 | 0.0979 |  |  | 0.119 | 0.114 |  |  |  | 0.0739
A232E | 0.12 | 0.123 |  |  | 0.0815 |  | 0.0945 | 0.108 |  |  | 0.104 | 0.135 | 0.122 |  |  | 0.0867 |  | 0.0837 | 0.0915
A232R | 0.117 | 0.121 | 0.121 |  | 0.0815 | 0.112 | 0.118 | 0.117 | 0.102 |  | 0.107 |  | 0.111 |  |  |  | 0.0952 | 0.0849 | 
T31Q |  | 0.111 |  |  | 0.0479 | 0.074 |  | 0.118 | 0.0987 | 0.0845 | 0.087 | 0.114 | 0.0762 | 0.108 |  | 0.0754 |  |  | 
S60T |  | 0.088 |  |  | 0.0994 | 0.102 |  |  | 0.113 | 0.0974 | 0.108 |  | 0.0977 | 0.123 | 0.0908 | 0.104 | 0.113 |  | 0.101
V64E |  | 0.0968 | 0.128 |  | 0.0941 | 0.141 | 0.136 | 0.177 |  |  | 0.102 |  | 0.0949 |  | 0.0818 | 0.11 | 0.122 | 0.0953 | 0.118
V64G |  | 0.106 |  |  |  | 0.105 | 0.112 |  | 0.104 |  | 0.0904 |  | 0.0894 |  | 0.0971 |  |  |  | 
N24G |  | 0.0711 | 0.0825 | 0.0571 | 0.0681 | 0.0667 | 0.0606 | 0.101 | 0.0728 | 0.0685 | 0.0633 | 0.0686 | 0.0595 | 0.071 |  | 0.0538 | 0.0613 | 0.056 | 0.0693
N24P |  | 0.0584 | 0.063 |  |  | 0.0742 | 0.0538 | 0.0533 | 0.0385 | 0.0562 | 0.0602 |  | 0.0546 | 0.0389 | 0.0476 | 0.0661 | 0.0524 | 0.0757 | 0.0494
Y12A |  | 0.113 | 0.144 |  | 0.0857 |  |  |  | 0.103 | 0.0962 | 0.0981 |  | 0.116 | 0.0992 |  | 0.134 | 0.111 | 0.0831 | 0.0708
T72K |  | 0.125 |  | 0.121 | 0.0991 | 0.116 |  | 0.111 | 0.123 | 0.131 | 0.104 | 0.155 | 0.0956 | 0.121 |  | 0.143 | 0.0922 | 0.0733 | 
F226D | 0.104 | 0.102 | 0.114 |  | 0.0898 | 0.124 | 0.108 |  | 0.106 |  |  | 0.123 |  |  |  | 0.132 |  |  | 0.137
G80A |  | 0.0952 | 0.114 | 0.107 | 0.0959 | 0.117 |  |  | 0.0815 | 0.108 | 0.071 | 0.0983 |  | 0.087 | 0.116 |  | 0.09 | 0.101 | 
G80M |  | 0.107 | 0.121 |  |  |  |  | 0.0966 | 0.125 | 0.112 | 0.111 |  | 0.0676 |  | 0.161 | 0.104 |  | 0.0768 | 0.107
Q234G | 0.159 |  | 0.146 |  | 0.0873 | 0.105 | 0.0593 |  |  | 0.106 |  |  | 0.0951 |  | 0.0958 |  | 0.108 | 0.106 | 0.12
